From article PMC7819943, “Rice protein-binding microarrays: a tool to detect cis-acting elements near promoter regions in rice”
The list shows a part of the results.

Each sequence was assayed against T1, OsWOX13 (Oryza sativa, UniProt Q5QMM3 1-267) (assay: protein-binding microarray (RPBM); PBS, 2% BSA, 51.3 ng/ul salmon testes DNA, 50 uM zinc acetate, 200 nM TF, 25 C, 1 h; high values mean tight binding). Conditions: protein: recombinant; tags: N-terminal polyhistidine and DsRed monomer fusion (pET32a); label: CyDye5-dUTP incorporated in the synthesized complementary strand; 3' TTTTT single-stranded linker to array surface; dsDNA, one strand shown.
T1 sequence: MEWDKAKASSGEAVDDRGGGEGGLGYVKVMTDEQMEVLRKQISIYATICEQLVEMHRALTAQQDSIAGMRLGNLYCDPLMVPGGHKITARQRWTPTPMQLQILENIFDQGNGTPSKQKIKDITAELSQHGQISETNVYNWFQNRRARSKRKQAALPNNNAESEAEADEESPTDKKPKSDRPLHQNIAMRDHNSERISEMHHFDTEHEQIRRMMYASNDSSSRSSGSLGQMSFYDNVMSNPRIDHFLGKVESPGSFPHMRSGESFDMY
Method in brief: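 Binding signal is reported as fluorescence intensity per feature (arbitrary units) from an Axon 4000B scanner. Incubation used 200 nM of each Ni–NTA-purified, N-terminally polyhistidine- and DsRed-fused transcription factor from E. coli BL21-CodonPlus on a double-stranded custom Agilent array for 1 h at 25 °C, with 50 µM zinc acetate in the buffer, followed by washing.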

Sequence	binding signal
CTCATTAATTTCAGCTGAAATGAAATAAGTATAATTGGAGCGGAGTCACCTAGTGCAG	14700 fluorescence intensity (a.u.)
GCTCAACTGGGATAGATAGATGGATGAATGGATGTCCTACCGGAGTCACCTAGTGCAG	6430 fluorescence intensity (a.u.)
TTTGGCTCTGATTGTTTTCTTGTACAGTTTGCTTAAACTCCGGAGTCACCTAGTGCAG	11400 fluorescence intensity (a.u.)
ATATATATATATATATATATATATATATATTCATAAATTACGGAGTCACCTAGTGCAG	3450 fluorescence intensity (a.u.)
AATAGATTATTAGGACAAAATTTGTTGAATATATGAAGTCCGGAGTCACCTAGTGCAG	17300 fluorescence intensity (a.u.)
TCTTTTCGAAAATGTTATTCAATCATTAATGACTAATAACCGGAGTCACCTAGTGCAG	7540 fluorescence intensity (a.u.)
TTCTAAATTGTATTTCTATATGGACTCTGCCTTTTCTTTTCGGAGTCACCTAGTGCAG	5800 fluorescence intensity (a.u.)
ACTTAATTGGAAGGCCTGATGAGAGACACAAACAGTTGGCCGGAGTCACCTAGTGCAG	39600 fluorescence intensity (a.u.)
ATGTCATTATCATGATTATGTGTAGTTGTCAACAAAACTTCGGAGTCACCTAGTGCAG	7260 fluorescence intensity (a.u.)
GAAAACTCAATTCTAGATTTGAATCTGACACACAATTGAGCGGAGTCACCTAGTGCAG	4220 fluorescence intensity (a.u.)
TGCACTTTACTCTATTTTGATTTAGATTATGACAATATGTCGGAGTCACCTAGTGCAG	4910 fluorescence intensity (a.u.)
ACTGATTACTCAACTATACTTATCGCATAAAGATATCCTTCGGAGTCACCTAGTGCAG	24800 fluorescence intensity (a.u.)
GCTTTCGTGATTACGACTTACCGTCGTGCTGCGCCCTTCACGGAGTCACCTAGTGCAG	10200 fluorescence intensity (a.u.)
TTGCTTTGATTACTATACCATTCTCCAATATTCCTCATAACGGAGTCACCTAGTGCAG	13200 fluorescence intensity (a.u.)
TTTAATTAATATTTTCATTCTAGACCAAACAATTTTACATCGGAGTCACCTAGTGCAG	23800 fluorescence intensity (a.u.)
TGCTTATGCATGATTGGATCTAGGATATGTGGATCAATGACGGAGTCACCTAGTGCAG	11400 fluorescence intensity (a.u.)
CATCATGAGTGACTAATTGGCCCTGCTGGCTGTGCAGACACGGAGTCACCTAGTGCAG	16600 fluorescence intensity (a.u.)
GTGATAATGTCCATCAATCTAGCAAATCATTCTCACAACGCGGAGTCACCTAGTGCAG	26800 fluorescence intensity (a.u.)
AAAACACATGATAGATAACTCTCGTACTCGTATTATTCTGCGGAGTCACCTAGTGCAG	6480 fluorescence intensity (a.u.)
TCTAAATTTTATTGGAGTGAAATTATATTTTATCCATGAGCGGAGTCACCTAGTGCAG	14000 fluorescence intensity (a.u.)
TCACAAAATTGAGACCAAGACACAAACTAACTACTGTACTCGGAGTCACCTAGTGCAG	7430 fluorescence intensity (a.u.)

Sequence	binding signal
TCACAACCTAGGTAATTGGAAGAATTAGCTACTATGATTCCGGAGTCACCTAGTGCAG	8860 fluorescence intensity (a.u.)
TTCGATTTAAATTATTCATGAAATGCAATTCCATTTATTACGGAGTCACCTAGTGCAG	5100 fluorescence intensity (a.u.)
TGTCACTATTGTAATTTAATATGTATTATCCTCCTCAACACGGAGTCACCTAGTGCAG	4790 fluorescence intensity (a.u.)
TTTAGATTTGACAATTAACTATTTGACACACCTATCTCAACGGAGTCACCTAGTGCAG	18200 fluorescence intensity (a.u.)
GTTGTTCCGATAATTGGACAAACCGACGAAGGCACAAATTCGGAGTCACCTAGTGCAG	9210 fluorescence intensity (a.u.)
ACAACCAATTATCACAACGTAACATTCAAAACGAGTGTAGCGGAGTCACCTAGTGCAG	10100 fluorescence intensity (a.u.)
GCAGCATTAATTGCATGATGAACATGCTTGGAATTGGTCGCGGAGTCACCTAGTGCAG	23500 fluorescence intensity (a.u.)
ACTTTCTGTCAATTAGCCATTAGGTCAGTAGCCCAAAGTCCGGAGTCACCTAGTGCAG	24300 fluorescence intensity (a.u.)
AGGAGGCAAACCCTAGATTGATTTCGCGTGTGTTGCGTGACGGAGTCACCTAGTGCAG	4160 fluorescence intensity (a.u.)
ACCTGATTTTATCCTTTCTTTGCCTCAGTAGCCAATTCTCCGGAGTCACCTAGTGCAG	9990 fluorescence intensity (a.u.)
CCACGTCAATCAAAATTACCTTCTAACCCGCCGAGGGAACCGGAGTCACCTAGTGCAG	29000 fluorescence intensity (a.u.)
CCCATCATCCGCCCATGTCCCTGATTGATTGAAATTCATTCGGAGTCACCTAGTGCAG	23300 fluorescence intensity (a.u.)
AGTTAGATTATTGCTTGATAAATCCAGCATTAGCAGGTCTCGGAGTCACCTAGTGCAG	19100 fluorescence intensity (a.u.)
CCTATGATTTGTGGGACCAAAAGATAAGAAATCATTGCATCGGAGTCACCTAGTGCAG	17000 fluorescence intensity (a.u.)
AAAATGCTAGAATGATTTATATTGTGAAACGGAGGGAGTCCGGAGTCACCTAGTGCAG	4150 fluorescence intensity (a.u.)
AATAAATCACACTAATCTGCTCTGCTTGCTGGGCCTCACACGGAGTCACCTAGTGCAG	9820 fluorescence intensity (a.u.)
GTAATTACTGCTATCAGATTTACTTGGCTGAAGAAAGGCACGGAGTCACCTAGTGCAG	8680 fluorescence intensity (a.u.)
AGCTTGATTATCTTCTCTTGATTTACTAGTATACCTTTAGCGGAGTCACCTAGTGCAG	44000 fluorescence intensity (a.u.)
CTAACAATTATCTCAACCGTTTGATTTAGATATATAGAAACGGAGTCACCTAGTGCAG	13300 fluorescence intensity (a.u.)
TTTATATAATTAGTTTTGTAAGTAATCTATATTTAATACTCGGAGTCACCTAGTGCAG	5900 fluorescence intensity (a.u.)
ATGACAGTTTCAGATAAATTAAGCTCTCATGTCAGACAGTCGGAGTCACCTAGTGCAG	11300 fluorescence intensity (a.u.)
